Measurements from paper PMC4242493.
Some of the results follow. The list includes weakly bound sequences.

Biological target: MaxL homodimer (UniProt P61244)
Assay: universal protein-binding microarray (PBM)
Conditions: PBS-based mixture, 10 nM His-tagged protein dimer, 2% milk, 200 ng/uL BSA, 50 ng/uL salmon testes DNA, 0.02% TX-100; detection with Alexa 488 anti-His …; high values mean tight binding; most listed sequences are background and not binding sites; double strand, one strand shown

Chain of UniProt P61244 (P61244 whole entry): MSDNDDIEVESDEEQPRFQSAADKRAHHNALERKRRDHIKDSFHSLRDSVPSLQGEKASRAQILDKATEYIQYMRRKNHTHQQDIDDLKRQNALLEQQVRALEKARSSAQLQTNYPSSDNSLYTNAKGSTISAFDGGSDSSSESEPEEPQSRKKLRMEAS

Sequence	binding signal (normalized occupancy)
AGCGACTC	0.0731
TACGAGAA	0.075
ACCCGAGA	0.0705
ACACTGAG	0.0731
GTGGGGCA	0.0781
AAACGATG	0.0722
ATTTTCCA	0.0795
GGTTATAC	0.0804
GATGAGCA	0.0802
CCACCCAG	0.0804
ACATTTGG	0.0755
AACTGGAG	0.0727
GTCCTGAA	0.0705
CTCGAGAA	0.0769
ACACCCCC	0.0913
TCGAGTCA	0.0754
ACCGCACG	0.0828
GGATGACC	0.0803
GACACTCC	0.0768
CTTGAATC	0.0757
TTACTCAA	0.069
GTGAAAAA	0.0773
ACGTTATG	0.0879

Sequence	binding signal (normalized occupancy)
CTCGGTCC	0.0706
CGGCGCCA	0.0686
GACCAATC	0.0726
ACGCCCCT	0.0783
CGTTGGAC	0.0755
AAGGAGTG	0.0738
ATACGCTG	0.0737
GAACTCAA	0.0715
CTGCTCCA	0.0758
ACGGGACA	0.0774
ACAGTCCT	0.074
CAATTGTG	0.0771
CATAACGA	0.0817
AAAGGTGA	0.0738
AACGGATG	0.0738
GACCGTCA	0.0699
CTATGATC	0.0755
CATACTGA	0.0804
ACCTGGAG	0.0744
ATGCCCCC	0.084
ACACTGAT	0.0738
AGCATAGC	0.0776
ACCTCAGC	0.0716

Sequence	binding signal (normalized occupancy)
AACCAGTC	0.0716
CAAACATG	0.0901
AATTCCCG	0.0738
AGTCGGGG	0.0767
CTTTCACA	0.0732
CTATCCTA	0.0757
AGCCAGGA	0.078
GTGATTAA	0.082
ACCGTATC	0.074
CCGTCTTA	0.0684
AAAGTGTA	0.0869
ACGCTACG	0.0854
ATGGATGG	0.0812
CTACCGGA	0.0764
ATATTCTA	0.0828
AGCTGTTG	0.0705
GAAGTATA	0.0736
CGTATGCC	0.0784
ACCAAGGA	0.0738
CCGACTCC	0.0671
GACTACTA	0.0774
GATTGCTA	0.0714
CAATTATG	0.0802

Sequence	binding signal (normalized occupancy)
AACCTGGC	0.0717
ACCGCTTC	0.0677
GTCTGTAA	0.0776
GTAGGGAC	0.0697
GTAAGTAA	0.0825
ATTTTCGG	0.0746
TTACGAAA	0.0726
AATCTAGA	0.0712
AGCCGCCA	0.0684
GATGGAGC	0.0776
GGATCAAA	0.0757
ACATTAGG	0.0844
AGACCGGA	0.0706
AAAAGTGA	0.0725
CCAATTGA	0.0716
CCCTACGA	0.0814
GACTCTAC	0.075
GCCATGGA	0.0788
TCTTCGCA	0.0796
CGACCGTC	0.0722
AACTGAAT	0.0721
CACGGTGA	0.0847
AAGGACGC	0.0688

Sequence	binding signal (normalized occupancy)
CGTATACG	0.0798
AGCCCACA	0.0759
AACTGTTA	0.0755
ACGTTAAG	0.0743
CCCGTAGC	0.0683
CTCCTACA	0.0776
CAGCGTGG	0.129
ACAACCGT	0.0742
CCGGCACG	0.0836
GATCAGAA	0.0725
ACAAAAGG	0.0713
AGAAATAG	0.0797
CATCAAGC	0.0726
AATACTTG	0.0777
AGAATGTC	0.0744
ACTTCTTC	0.0712
CGCTCGTA	0.0784
CGACTATA	0.0856
CGATAACG	0.0734
AGAATGGG	0.0752
GCGGCGCC	0.0654
ATGCGGTC	0.0901
GGGATACC	0.0741

Sequence	binding signal (normalized occupancy)
CGACATAC	0.0791
CAAGTTTC	0.0747
AAACCAAA	0.071
ATGCCACG	0.101
AAACATTT	0.0688
CATCAGAC	0.0785
AATTAATA	0.0733
AAGCGCGC	0.0767
ACTGTCCT	0.0719
CATAGGTA	0.0785
GGCTAAGA	0.0725
AAATATAT	0.0798
CTAAGGGA	0.0721
GATCGTGA	0.0758
GCACAGTA	0.0696
ACTCCTCT	0.0714
CATAAATG	0.0826
GAGAAAAA	0.0657
CGCCGCAA	0.0658
ACAATGCC	0.0821
AGTAGCTC	0.0765
ACAGGGTG	0.0771
TAAATGTA	0.0785

Sequence	binding signal (normalized occupancy)
GTTGATTA	0.0771
ATGTCACG	0.101
GCGCGTCC	0.0708
CTAATGCA	0.0781
CCTAGGCG	0.0728
TCCCAAGA	0.0679
ACCCCTGC	0.0762
GCCTCTTA	0.073
GTCTCACA	0.0781
GAGTTACA	0.0767
AAGACAGT	0.0726
CATTTGCG	0.0749
ATACTAGC	0.0756
GTGCGAAC	0.0736
AAGATCGG	0.0697
CTTAATGC	0.07
CGGGAAGA	0.0749
GGAAGGCC	0.0699
CAGCCTCC	0.0691
ACCGGGCC	0.0674
ATTCCTTG	0.0713
AATATTTC	0.0809
GAAGATTA	0.073

Sequence	binding signal (normalized occupancy)
CACGAATC	0.0759
GGCACGGA	0.0704
ATTTTTTC	0.0734
GCCGCGGA	0.0659
CTGGCCGA	0.0668
GTTATGGA	0.0865
CGTGCAAA	0.0868
ACATGGCT	0.0932
CGTACCTC	0.0674
ATGGAGAG	0.0815
AGATTCCT	0.0865
GGCTGCCC	0.0697
TGAGCAAA	0.0783
AACCAGCT	0.0707
ACCATGAG	0.0976
CCGATATA	0.0798
TACCGCCA	0.0821
ACGATACG	0.0757
ACGCTCTC	0.0783
AGGTTCAG	0.0747
CGCAACAC	0.0797
AGACGCCT	0.0683
CTGATCAG	0.07

Sequence	binding signal (normalized occupancy)
AGCGCCCA	0.0708
GCTATACC	0.0805
ACATATTG	0.0827
GAGTCAAC	0.0769
GACCCTCA	0.0742
CTATCGGC	0.0709
GTAATCCA	0.0839
CCTCGTCC	0.0701
GCCTGACA	0.0768
GGGTTGAA	0.0787
CCCCCCAG	0.0811
GAAGGATA	0.0773
GCGGAGCA	0.07
GAAGAAAC	0.0746
CTTCCATC	0.0842
ATAGCTTC	0.074
CACTCGAC	0.0757
CTCAAGGA	0.0688
AAGTCGTG	0.0757
AACCGCCA	0.0716
ATTGATAA	0.0774
AGGACCTC	0.0682
CTATGTCC	0.077
